Laboratory results: the antibiotic and cytotoxicity screens of Wong et al. (2023)
The list shows a part of the results.

Legend:
HSkMC = human skeletal muscle cells; assay: cytotoxicity call (relative viability < 0.9); settings: 10 µM
HepG2 = assay: cytotoxicity call (relative viability < 0.9); settings: 10 µM
S. aureus RN4220 = assay: growth inhibition call (relative growth <= 0.2); settings: 50 µM

Compound	cytotoxicity call (HSkMC)	cytotoxicity call (HepG2)	growth inhibition call (S. aureus RN4220)
COc1ccc(CN(C)C[C@H]2OCCCC[C@@H](C)Oc3ccc(NC(=O)Nc4c(C)noc4C)cc3C(=O)N([C@H](C)CO)C[C@@H]2C)cc1	inactive	inactive	inactive
C[C@H]1CCCCO[C@@H](CN(C)S(=O)(=O)c2ccccc2)[C@@H](C)CN([C@@H](C)CO)C(=O)c2cc(NC(=O)NC3CCCCC3)ccc2O1	inactive	inactive	inactive
C[C@@H]1CN([C@@H](C)CO)C(=O)Cc2cc(NS(=O)(=O)c3cn(C)cn3)ccc2O[C@H]1CN(C)C(=O)NC1CCCCC1	inactive	inactive	inactive
O=C(N[C@@H](c1ccc(-c2ccccc2)cc1)c1cnccn1)C1CCN(CCCOc2ccccc2)CC1	inactive	active	inactive
Cc1ccc(S(=O)(=O)Nc2cccc3c2O[C@H](CN(C)Cc2ccc(C(F)(F)F)cc2)[C@H](C)CN([C@@H](C)CO)C3=O)cc1	inactive	inactive	inactive
C[C@@H]1CN([C@@H](C)CO)C(=O)CCCn2nncc2CO[C@H]1CN(C)S(=O)(=O)c1cn(C)cn1	inactive	inactive	inactive
C[C@H](CO)N1C[C@H](C)[C@@H](CN(C)S(=O)(=O)c2cn(C)cn2)OCCCC[C@H](C)Oc2ccc(NS(=O)(=O)c3cccs3)cc2C1=O	inactive	inactive	inactive
COc1ccccc1CNC(=O)C[C@@H]1C[C@H]2c3cc(NC(=O)Nc4ccc(C(F)(F)F)cc4)ccc3O[C@H]2[C@H](CO)O1	inactive	inactive	inactive
C[C@@H]1CN([C@H](C)CO)C(=O)c2cccc(NC(=O)Nc3ccc(C(F)(F)F)cc3)c2O[C@@H]1CN(C)Cc1ccc(C(=O)O)cc1	inactive	inactive	inactive
